Laboratory results as given in the RNAGym collection of RNA variant scans (doi:10.7554/elife.90254).
The source gives no read counts; variants with many changes may rest on few reads.

B1: LINE1-mini (parent)
chain: GGCAGAGCUCAACACAGCGUGGCAAAGUGGCUGUGGCUAGACUGCC

Variants of: B1
Experiment: self-cleavage, relative activity (ratio to wild type); higher = more cleavage; in vitro, sequencing; the parent is a self-cleaving ribozyme

Variant | self-cleavage
G21U G35U U38C | 0.06
G1U G21U G44U | 0.16
G33A G40U C46G | 0.06
C13G A14C A39U | 0.05
G27U G35A C37U G40U | 0.07
G30C C37G G40A | 0.09
G2U C8A U9G C18U G30A A39C A41U | 0.01
G7C A11U A12C A26G G44U | 0.01
C3A U20G C23A A25C C46U | 0.1
C13U C23A A24G G33C G35A A39C | 0.01
C3U U9G C45U | 0.44
C8U A24G G29U U32C | 0.05
G7A C8A U20G G40U | 0.28
A6U A16U G17A C31A C37G | 0
U9A C18G G21U G35A | 0.01
U28A G29A U32C | 0.09
A4U A26C A39G G40A | 0.06
G2A A11G A12C C13A G33C | 0.01
G1A A4G G44A | 0.18
A26G G36U G40U | 0.2
U9A A39U C45A | 0.04
C13G C18U G19A U38A | 0.08
A12U G17A U20A G36C | 0.01
A6G C18U G22C C23U G36A C37U C45U C46G | 0.16

Variant | self-cleavage
G1U C15A A24C G30U | 0.08
C10G A16U U32G | 0.02
G1C G21U A26U | 0.31
C15A U28C U32A | 0.02
A14U G21U A24C A39U | 0.09
G21U G29U G35C G40U G44C | 0.02
G5C G22C G35C C46A | 0.07
A4C U9G C15A U38C A41C | 0.02
C3U C8A G30A | 0.22
C3U G17U A39G | 0.09
A16G G27C G30C | 0.84
A6C U9A A14U C23U A26C G30A G33U | 0.08
G21A A26U U32A U34G | 0.01
G33A U34A A41C | 0.03
A14U C15U C18A U34C C45G | 0.02
C13G G21U G29C | 0.1
A4C C10G G36A A41G C46A | 0
A12U U32C G40A | 0.12
U9A C23U G30U A41U | 0.05
C23A U28A C37U A41U | 0.04
A6U C23A A24G A25C | 0.51
G5C A6C C13U C15U | 0.25
A6U C15A C42A | 0.07
G1A G2U G22A C37U U38G | 0.05

Variant | self-cleavage
G2C C8G G19U C23U G29U U32A U34A | 0.1
A11C A12G G29A U38C | 0.01
C3A U28A G33C G35U G40C G44C C45A | 0.01
G5C G22C A41U | 0.07
A6U A16G G30U G40U | 0.01
C13U G17U C18G | 0.07
U20G C23A A26U | 0.27
A11C A12G G19U C31G | 0
A16G U28C G30A U43G | 0
G2U U9C A26G G29C | 0.02
C18G G19U C37G | 0.01
G5A A16U U34G | 0.02
G1C G2U C10A C18G U28C | 0.02
A11G C15G A16U C45A | 0.05
C10G A11G C45U | 0.04
G7C G21C G27A G30U A39G C42A | 0.01
C18U G19A G29C C42U | 0.11
C3A U9C G17C G33A G40A C46A | 0.01
C3A A12U C15A G22U G27A | 0.25
G2C G7A G21C G29U C45G | 0.03
A4G C10G A11G | 0.03
A16G C18U G29A G33U | 0.1
A16C G33C G35C G40U | 0.12
C15U G29U C46A | 1.79

Variant | self-cleavage
G2U A11C A12U G27U G33U A41G | 0.01
G5C C15G C18U G40A | 0.07
G5C C13G C23U A24U | 0.04
U28G C45G C46U | 0.06
G29U G30A C45G | 0.39
A6U G7A G44U | 0.55
C18A G19U U38A | 0.29
G2C C13U G19A A39U C42A | 0
C8A C18U A24G G35U | 0.08
C3A C10A G17U G30U | 0.03
C13G U43A C46A | 0.06
A4U A6C U9G C31A | 0.03
C3U G17A A39C | 0.08
G2U G27U U38A | 0.02
G22U G27A G33U | 1.08
A24U G29U U38C | 1.53
G5A G7A C18A C23U U28G U38G A39G | 0.1
G5U A24U G35U C45G C46G | 0.02
G33U U38G G40U | 0.02
C10A G21U G29C | 0.06
A4C G7U A24G C37U | 0.03
A16G C37U G40A C45U | 0.06
A12G U20C G22C C23A | 0.02
C10A G17A G27A A41C | 0.01

Variant | self-cleavage
G35C U38A G40A | 0.04
C10G A12G G19A | 0.01
C8A C10U A16G A25U | 0.05
C10A A11G A12U U28G U38C | 0
A12U A16U C42A | 0.19
G17A U28G U34C | 0.03
C10U G17A C31G | 0.1
C10U G33A C45A | 0.07
A12U C13G G29U A39U A41G | 0.06
G1A G2U A12U C18A A26U | 0.03
C8A U28G G35U | 0.24
A6C C8G A11U A16G G17A U20C C46G | 0.02
A6U C15U A24U U32C C37G A39G | 0.1
A14U C31A C42A | 0.05
A11U A12C C13A A16C A39G A41U | 0
A6G A11G C37A | 0
A12C A24G U28G C42U | 0
A14G U34C G36C C42U G44U | 0.14
G2C G5U U9G G22C U38C G40A C46A | 0.01
C3U G5C C13G G17A U20C | 0.05
C8U U9C C31U U34C | 0.03
A6C A11C A14G G29U G35U | 0.01
G2U A6G C18U U34G U38C U43A | 0
G5A C10A A41G | 0.02

Variant | self-cleavage
A6G G30C G44U | 0.03
C3G A4U G22C C37G | 0.01
G1C G17U C45G | 0.02
U9G G22A U34G G36A | 0.16
A14C C18G C45U | 0.02
A4C U20A A26C C37A | 0.02
C3A A14G G29U | 0.47
A11C A24U G30U U38C | 0.01
G17U U28A C42U | 0
G1U C10G A16G C23G | 0.01
G1U C13G C23G G35C C37U C46A | 0.02
C3A G33A U38C A41U | 0.03
G2U U9C G44U | 0
G2A A11C G19U | 0.03
A4U A12C A14C A41C C46A | 0.01
G2C C8U C13U G30C | 0.01
A4C G22C U32C G44U | 0.04
U9A A14U C23U C42U | 0.03
A12C G19A U20C G21A C23U C31U | 0.01
G2C G27U U34A C42U | 0.02
C10A C13G C23U A39U U43C C46G | 0.01
G2U A4G U34A | 0.02
C10A C13A G22C G27U U43C | 0.01
G5A U20A A24G G40U | 0.16

Variant | self-cleavage
G1A G5U C15A | 0.05
G7A C10U G17A | 0
C8G G44C C46U | 0.01
C10A C13U A16U G22U G36A | 0.06
A6G G7U C8A G30A A39U C45G | 0.24
C15G G19C C23G G27U A41G G44U | 0.07
A12C C13G A14U G29A U38A | 0.05
G21U U34A A39G | 0.03
C18G A25G U32G G36A | 0.01
G22U A24C C37U G40A | 0.03
G5U C13U A24G C42A | 0.1
G22U G27U U32C G35C U43C | 0.08
A6U C10A G29U | 0.01
A6C A24U G40C G44A | 0
G2A C3A C10G A39U | 0.03
G2C C18A A24G A26G | 0.01
G19U G27A G30A C45U | 0.42
C13G A25G A41U | 0.02
C15U G17U A26C C45G | 0.04
C3U G17C U38A | 0.18
A6C G19A G30A G36C G40C | 0.13
C8A G19A G22C G33C G40C C46G | 0.04
C10A A14C G44U | 0.01
